# In the supplement of paper PMC3334620:
# Whole data set: some 33,000 sequences, median “E-score (-0.5 to 0.5)” near -0.036, cut for the highest 2% near 0.37. The list shows a part of the results.
# Target: T1, Yer064c (UniProt P40041)
# T1 sequence: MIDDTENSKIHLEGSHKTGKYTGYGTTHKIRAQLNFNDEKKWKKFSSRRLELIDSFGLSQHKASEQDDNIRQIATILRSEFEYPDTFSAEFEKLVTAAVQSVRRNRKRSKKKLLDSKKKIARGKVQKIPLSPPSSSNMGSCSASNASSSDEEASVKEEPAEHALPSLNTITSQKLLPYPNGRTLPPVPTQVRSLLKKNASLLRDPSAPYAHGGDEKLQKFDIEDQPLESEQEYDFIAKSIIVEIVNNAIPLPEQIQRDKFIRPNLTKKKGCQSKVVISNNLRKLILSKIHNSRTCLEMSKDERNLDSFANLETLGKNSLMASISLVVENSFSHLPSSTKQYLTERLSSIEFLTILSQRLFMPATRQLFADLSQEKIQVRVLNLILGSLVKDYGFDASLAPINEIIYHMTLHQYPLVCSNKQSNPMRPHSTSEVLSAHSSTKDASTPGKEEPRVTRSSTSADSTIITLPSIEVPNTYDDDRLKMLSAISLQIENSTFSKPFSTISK
# Assay: PBM E-score (8-mer binding enrichment) (E-score (-0.5 to 0.5)); higher = stronger / more preferred TF binding; most listed sequences are background and not binding sites
# Conditions: protein concentration: 200 nM; construct: GST-full length
# Description: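 Universal 'all 10-mer' protein binding microarrays (Agilent AMADID 015681) probed with GST-tagged S. cerevisiae TFs (full-length or DBD) made by in vitro transcription/translation (PURExpress), about 100-200 nM. Bound TF was detected with fluorescent anti-GST. Each ungapped 8-mer (which stands for itself and its reverse complement) is scored by the PBM enrichment score (E-score), a modified Wilcoxon-Mann-Whitney statistic from -0.5 to +0.5, computed with the Universal PBM Analysis Suite. Scale: above 0.35 generally sequence-specific binding.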
row,Sequence,PBM E-score
1,ATAGCTTC,-0.258
2,AGTAACCC,0.179
3,TTACGAAA,0.053
4,AACTATTG,-0.00378
5,AAGCCATT,0.125
6,CCCAAAGC,-0.121
7,AGTGACAA,0.0598
8,CCTCTCCG,-0.231
9,ACGACTCG,0.394
10,TCACGACA,0.0914
11,AGTAGGCA,0.00447
12,AGATGAGG,-0.0692
13,GAAACCTC,-0.149
14,AGGAGTGC,-0.352
15,ACAGAAAC,0.0324
16,CAGGTAAC,-0.013
17,CGTATCTA,-0.117
18,CGATATCG,0.0784
19,CCCTCAAC,-0.228
20,CCATGTAG,0.00415
21,AGCTCTCG,-0.152
22,ATCTGACA,-0.0612
23,AATGCCCT,-0.232
24,AAGAAAGA,0.162
25,ACGGTCGG,0.00214

row,Sequence,PBM E-score
1,TGATCGCA,-0.0724
2,GGTGCCGA,-0.129
3,CTAGAAAC,0.0516
4,CCACATTC,-0.0158
5,GCAGATCC,-0.0228
6,AGGGGGCC,-0.357
7,CATTAGCA,-0.0935
8,CTTTCCGC,-0.125
9,AGGTGACT,0.484
10,TGACCTAA,0.204
11,CCAGTCGG,-0.125
12,GATAGACA,0.0601
13,ATCCTGTG,0.00109
14,AAGTATGG,0.079
15,ATTAGTAC,0.205
16,AATAATTA,0.13
17,ATGGGCGG,-0.0899
18,CTAAGATC,0.0074
19,GCGTCCGA,-0.125
20,GGTAGGTA,0.0405
21,CCCAATAG,-0.158
22,AGCGTTTC,-0.125
23,AGCCTTTG,-0.205
24,AACGGAAT,-0.00613
25,ACAGCCGA,-0.222

row,Sequence,PBM E-score
1,GAATGTAA,-0.0881
2,CGCGCTAA,-0.0181
3,CGAGCACA,0.0683
4,GCCCGGCC,-0.0469
5,ATTCCAAC,0.079
6,AGCCGGAA,-0.22
7,AGATTAGG,0.16
8,CGTGCGTA,-0.0487
9,GCCAACCA,-0.199
10,GGCGGATA,-0.0818
11,AAACATTC,-0.137
12,CGCCTTCC,-0.169
13,AAGGTTAA,0.205
14,CGACGACC,-0.121
15,ACGTAGCA,-0.112
16,GACAACTC,-0.111
17,CCATGGTC,-0.0499
18,ACCCCCTC,-0.399
19,ATGCAGAG,-0.0631
20,ATGGCGAA,0.0775
21,GGCTGAGA,0.0401
22,CGTCCTCA,-0.126
23,AAAAACAA,0.0429
24,GTACCGAA,-0.0603
25,ACCGTACC,-0.0655

row,Sequence,PBM E-score
1,CGCACCAA,0.00864
2,ACGAATTC,-0.0901
3,GGGATCGA,-0.12
4,CAGCCCCC,-0.308
5,CTGGGAGA,-0.178
6,AGCTGGGG,0.0108
7,CCCCCGGC,-0.0733
8,GATCCCGA,-0.183
9,ATATGGAG,-0.107
10,AGGTCCCG,-0.252
11,GTAAGGCA,0.0072
12,GTCCATCA,-0.0251
13,CACGGCTG,-0.115
14,AGTCAATG,0.377
15,GATCGGGA,-0.195
16,CTAAATAG,0.0388
17,CCTGTGTC,-0.102
18,AGGGGAAG,-0.303
19,CGTAGTAC,0.064
20,AGACACTG,0.0291
21,GCCTCCGA,-0.224
22,ATCAGCGC,0.182
23,CCGCTCAA,-0.0697
24,CTGCATCA,-0.0294
25,CCTACTTC,-0.0773

row,Sequence,PBM E-score
1,AAAGGGGT,-0.196
2,ATATACAC,0.0575
3,AACAACGG,-0.0346
4,CATCGCGA,0.0199
5,CCGGTCAA,-0.11
6,CGGCACCC,-0.276
7,CAAGACTC,0.429
8,AGCTCAAA,0.106
9,ATAAGGCG,-0.134
10,CGGTCAAA,-0.0249
11,GGAGGAAC,-0.161
12,ATCTCAAG,-0.0959
13,AGGCTTGA,0.0633
14,CGACGTGA,0.0646
15,ATAGTTGC,0.0257
16,CAGGTGGC,0.0289
17,CGACCTCC,-0.251
18,CGTAGTCA,0.483
19,TACAGAAA,0.112
20,ACCAGCCG,-0.0843
21,ACTTGAAT,0.118
22,GAGGATAC,-0.159
23,CCAGTTCA,-0.114
24,AATCATTA,0.397
25,CCTCAGTA,-0.103

row,Sequence,PBM E-score
1,GACAACCA,0.0326
2,CGGTCAAC,-0.0708
3,CAACTGAG,0.1
4,ACTTCAGA,0.239
5,TAGCGCCA,-0.164
6,TAGGGATA,-0.141
7,GAAGCCGA,-0.0862
8,AGACGCCG,-0.264
9,GGCATCGA,-0.247
10,CGGCCCAC,-0.175
11,AATACACA,0.135
12,CCCTCCGC,-0.257
13,ATGTGGAA,-0.0113
14,GGAATAAC,-0.024
15,CTGGTTAA,0.162
16,CCTCTTAG,0.031
17,CTCGTACA,-0.0862
18,TAGTTTGA,0.0842
19,TATTCACA,0.013
20,CGGGAATC,0.0615
21,GCTGGGCC,-0.265
22,CACTCGCG,-0.074
23,GAGAAACC,-0.145
24,CTATCCCA,-0.208
25,ACCTATGG,0.0486

row,Sequence,PBM E-score
1,CCTCCTTA,-0.0895
2,AGTAATTA,0.215
3,AGACGAGG,-0.265
4,ATCGCGTA,-0.064
5,AACTCTTC,-0.0379
6,TAAACGTA,-0.0489
7,ATAACGCC,-0.224
8,ACTGTTCG,0.16
9,ACGTGTGA,0.149
10,AACCGGTG,-0.201
11,GTCGATTA,0.14
12,TCACGTAA,0.0225
13,CGGCCAAA,-0.054
14,CACCGCTA,-0.229
15,ATTGTTAA,0.145
16,CTGTTAAG,0.113
17,GCTTGACA,-0.189
18,AACTGTGT,-0.0355
19,AGCAAGCA,-0.237
20,GCCCCCGC,-0.414
21,ACGGCCAT,-0.168
22,GACGCTGA,0.201
